# Reference: the antibiotic and cytotoxicity screens of Wong et al. (2023)
# This is one part of the list.
# Tested on: HSkMC (human skeletal muscle cells)
# Experiment: cytotoxicity call (relative viability < 0.9)
# Conditions: 10 µM
row,Structure (SMILES),cytotoxicity call
1,CO[C@H]1C[C@@H]2CC[C@@H](C)[C@@](O)(O2)C(=O)C(=O)N2CCCC[C@H]2C(=O)O[C@H]([C@H](C)C[C@@H]2CC[C@@H](OC(=O)C(C)(CO)CO)[C@H](OC)C2)CC(=O)[C@H](C)/C=C(\C)[C@@H](O)[C@@H](OC)C(=O)[C@H](C)C[C@H](C)/C=C/C=C/C=C/1C,inactive
2,CC(=O)NCCCC[C@@H]1NC(=O)[C@H]2C[C@@H](C(=O)NCCCC[N+](C)(C)C)[C@@H](c3ccc(O)cc3)N2C1=O,inactive
3,C[C@@H]1CN([C@@H](C)CO)C(=O)c2cc(NS(=O)(=O)c3cn(C)cn3)ccc2O[C@@H]1CN(C)C(=O)NC1CCCCC1,inactive
4,CC[C@@H](C)NCc1ccsc1,inactive
5,Cc1ccc(S(=O)(=O)N(C)C[C@@H]2Oc3c(NS(=O)(=O)c4cn(C)cn4)cccc3C(=O)N([C@@H](C)CO)C[C@@H]2C)cc1,inactive
6,O=CN1CCN(C(=O)c2ccccc2)CC1,inactive
7,CCOc1ccccc1OCCNC(C)Cc1ccc(OC)c(S(N)(=O)=O)c1.Cl (stereo not given),inactive
8,COc1ccc(NC(=O)Nc2ccc3c(c2)CC(=O)N([C@@H](C)CO)C[C@@H](C)[C@@H](CN(C)Cc2ccc(-c4ccccc4)cc2)O3)cc1,inactive
9,COc1ccc(CN(C)C[C@@H]2OCCCC[C@H](C)Oc3ccc(NS(=O)(=O)c4ccc(OC)cc4)cc3C(=O)N([C@H](C)CO)C[C@H]2C)cc1,inactive
10,COc1ccc(-c2cnc3c(c2)C(=O)N([C@H](C)CO)C[C@H](C)[C@@H](CN(C)C(=O)Cc2ccncc2)O3)cc1,inactive
11,CC(C)N1C[C@@H](C)[C@H](CN(C)Cc2ccc(OCCCC(F)(F)C(F)(F)C(F)(F)C(F)(F)C(F)(F)C(F)(F)C(F)(F)C(F)(F)F)cc2)Oc2c(NC(=O)c3ccncc3)cccc2C1=O,inactive
12,O=C(O)[C@H]1CCCN1C(=O)c1cccnc1,inactive
13,O=c1cc(-c2ccc(O)cc2)oc2cc(O)ccc12,inactive
14,COc1cccc(C#Cc2ccc([C@@H]3[C@@H](CO)N4C(=O)CN(S(=O)(=O)c5ccccc5C)C[C@@H]34)cc2)c1,inactive
15,Cc1ccc(S(=O)(=O)Nc2cccc3c2O[C@@H](CN(C)Cc2ccc(-c4ccccc4)cc2)[C@H](C)CN([C@@H](C)CO)C3=O)cc1,inactive
16,C[C@@H]1CCCCO[C@H](CN(C)S(=O)(=O)c2ccc(Cl)cc2)[C@H](C)CN([C@@H](C)CO)C(=O)c2cc(NS(=O)(=O)c3cccs3)ccc2O1,inactive
17,CCCCCCCCCCCCCCCCOCCCOP(=O)(O)CO[C@H](CO)Cn1ccc(N)nc1=O,inactive
18,C[C@@H]1CCCCO[C@H](CN(C)S(=O)(=O)c2cn(C)cn2)[C@@H](C)CN([C@@H](C)CO)C(=O)c2cc(NC(=O)Nc3ccc(C(F)(F)F)cc3)ccc2O1,inactive
19,C[C@@H]1CCCCO[C@@H](CN(C)Cc2ccc3c(c2)OCO3)[C@@H](C)CN([C@@H](C)CO)C(=O)c2cc(NC(=O)Nc3cccc4ccccc34)ccc2O1,inactive
20,C[C@H](CO)N1C[C@H](C)[C@@H](CN(C)C(=O)NC2CCCCC2)Oc2ccc(NC(=O)CCN3CCOCC3)cc2CC1=O,inactive

row,Structure (SMILES),cytotoxicity call
1,C[C@H]1CN([C@@H](C)CO)C(=O)c2cc(NC(=O)NC3CCCCC3)ccc2O[C@@H]1CN(C)C(=O)Nc1ccc(C(F)(F)F)cc1,inactive
2,C[C@@H]1CCCCO[C@@H](CN(C)C(=O)NC2CCCCC2)[C@H](C)CN([C@@H](C)CO)C(=O)c2cc(NC(=O)C3CCCCC3)ccc2O1,inactive
3,CC(C)NC(=O)N(C)C[C@@H]1Oc2cc(C#Cc3ccccn3)ccc2S(=O)(=O)N([C@H](C)CO)C[C@@H]1C,inactive
4,C=C(c1ccc(C(=O)O)cc1)c1cc2c(cc1C)C(C)(C)CCC2(C)C,inactive
5,CC(C)=CCc1c2c(c3occ(-c4ccc(O)cc4)c(=O)c3c1O)C=CC(C)(C)O2,inactive
6,COc1ccc(S(=O)(=O)N(C)C[C@@H]2OCCCC[C@@H](C)Oc3ccc(NC(=O)C4CCCCC4)cc3C(=O)N([C@@H](C)CO)C[C@H]2C)cc1,inactive
7,CNC[C@H]1OCCCC[C@H](C)Oc2ccc(NC(=O)Nc3cccc4ccccc34)cc2C(=O)N([C@@H](C)CO)C[C@@H]1C,inactive
8,CC(=O)N(C)C[C@H]1Oc2ncc(C#C[C@@H](C)O)cc2C(=O)N([C@H](C)CO)C[C@@H]1C,inactive
9,COc1ccc(S(=O)(=O)N(C)C[C@H]2Oc3c(NS(=O)(=O)c4ccc(C)cc4)cccc3C(=O)N([C@@H](C)CO)C[C@@H]2C)cc1,inactive
10,Cc1ccc(S(=O)(=O)N(C)C[C@@H]2OCCCC[C@@H](C)Oc3ccc(NS(=O)(=O)c4ccc(F)cc4)cc3C(=O)N([C@H](C)CO)C[C@H]2C)cc1,active
11,CS(=O)(=O)O.CSc1ccc2c(c1)C(N1CCN(C)CC1)Cc1ccccc1S2 (stereo not given),active
12,C[C@@H]1CN([C@@H](C)CO)C(=O)CCCn2cc(nn2)CO[C@H]1CN(C)S(=O)(=O)c1ccc(Oc2ccccc2)cc1,inactive
13,COCC(=O)Nc1ccc2c(c1)OC[C@@H](C)N(C(=O)Nc1ccccc1F)C[C@@H](C)[C@H](OC)CN(C)C2=O,inactive
14,COc1ccc(S(=O)(=O)N(C)C[C@H]2OCCCC[C@@H](C)Oc3ccc(NS(C)(=O)=O)cc3C(=O)N([C@H](C)CO)C[C@H]2C)cc1,inactive
15,COCCNC(=O)Cn1cnc2c1c(=O)n(C)c(=O)n2C,inactive
16,C[C@H]1CN([C@@H](C)CO)C(=O)c2cccc(NC(=O)c3ccncc3)c2O[C@H]1CN(C)Cc1ccc2c(c1)OCO2,inactive
17,CC(C)CC#Cc1ccc2c(c1)O[C@@H](CN(C)C(=O)C1CCOCC1)[C@@H](C)CN([C@H](C)CO)S2(=O)=O,inactive
18,C[C@H](CO)N1C[C@H](C)[C@H](CN(C)Cc2ccc3c(c2)OCO3)OCCCC[C@H](C)Oc2ccc(NC(=O)Nc3ccc(F)cc3)cc2C1=O,inactive
19,N[C@@H]1CC[C@H](CCn2cc(-c3ccccn3)nn2)O[C@H]1CO,inactive
20,CC(C)NC(=O)Nc1ccc2c(c1)C(=O)N([C@H](C)CO)C[C@H](C)[C@H](CN(C)C(=O)NC1CCCCC1)O2,inactive
